# From the supplement of paper PMC7826260
# This is one part of the list. Each Rep nickase domain was tested in vitro on the same pool of single strands (1 h at 37 °C, 3 µM enzyme); the outer parts of the 90-letter strands are left off. Uncut reads are compared with the no-enzyme pool on a log2 scale; the lower, the more was cut; hits are not called. Because reads are shares of a total, they shift together, so uncut sequences can rise above 0 when many others are cut.
# Tested on: T1, Rep nickase domain of faba bean necrotic yellows virus
# T1 sequence (residues 1-98, tag not shown): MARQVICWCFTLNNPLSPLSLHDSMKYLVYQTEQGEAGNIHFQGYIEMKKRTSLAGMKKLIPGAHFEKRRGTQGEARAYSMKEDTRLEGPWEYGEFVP
# Assay: uncleaved DNA left, log2 of reads against the no-enzyme library (log2 ratio); higher = less cleavage (more negative = more Rep cleavage of the k-mer); sequences stand for … in CTCGTCCG…ACCGGAGA
# Protocol: (§1)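 A pool of 90-nt single-stranded DNAs with seven random bases just before the constant AC of the nick site (name = the seven bases) was cut by 3 µM recombinant His6-SUMO-tagged Rep nickase domain (300 nM DNA, 50 mM HEPES pH 8.0, 50 mM NaCl, 1 mM MnCl2, 1 h, 37 °C, three replicates). Uncut DNA was amplified and sequenced.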
row,Sequence,uncleaved DNA left (log2)
1,GGAATAG,0.0291
2,TCATGAG,0.0567
3,ACACACC,0.00156
4,GTAACAC,0.0746
5,TAAGACT,0.0719
6,CCGGCCT,-0.00826
7,TGCGTAA,-0.0332
8,GAAAGGG,0.0711
9,TCGTCCA,0.0138
10,ATGTCAC,-0.0584
11,AACTCCG,0.0394
12,GGTGATT,-0.0887
13,ACGATCA,0.0911
14,GGTGCGT,-0.156
15,TAGCCGT,-0.0194
16,CTATAAC,-0.0565
17,CCGCTTT,0.0791
18,ATGAGAT,0.101
19,AGACTAA,-0.00052
20,AAATCAC,0.0626

row,Sequence,uncleaved DNA left (log2)
1,ATACGAT,0.0881
2,TTACATC,-0.0445
3,GGAGCAA,0.0325
4,GCCGATG,-0.0623
5,GTTGTGC,-0.0558
6,GTTTTCA,-0.00675
7,CCCCTCG,-0.234
8,CCATTCT,0.044
9,CATTTCC,-0.00601
10,GTTCACA,-0.115
11,CTGGCAT,-0.191
12,AATAAGG,0.134
13,GACACGT,-0.0694
14,ATCCCGA,0.0722
15,ATATAGT,-0.0184
16,TGGCTCG,-0.115
17,ATCGAAC,-0.0737
18,CACGTTT,0.0605
19,TCGGGGT,-0.101

# Tested on: T2, Rep nickase domain of maize striate mosaic virus
# T2 sequence (residues 1-117, tag not shown): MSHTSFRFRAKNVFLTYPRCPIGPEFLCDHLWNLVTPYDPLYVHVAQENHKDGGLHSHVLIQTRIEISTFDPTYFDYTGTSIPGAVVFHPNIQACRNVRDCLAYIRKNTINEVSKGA
# Assay: as above
# Protocol: as §1
row,Sequence,uncleaved DNA left (log2)
1,GGAATAG,-0.0657
2,TCATGAG,-0.998
3,ACACACC,-0.707
4,GTAACAC,1.52
5,TAAGACT,1.23
6,CCGGCCT,0.262
7,TGCGTAA,-1.03
8,GAAAGGG,-0.195
9,TCGTCCA,-0.086
10,ATGTCAC,-0.687
11,AACTCCG,-1.09
12,GGTGATT,2.11
13,ACGATCA,-0.149
14,GGTGCGT,0.152
15,TAGCCGT,-0.947
16,CTATAAC,-0.884
17,CCGCTTT,-0.452
18,ATGAGAT,1.8
19,AGACTAA,1.45
20,AAATCAC,-0.723

row,Sequence,uncleaved DNA left (log2)
1,ATACGAT,0.957
2,TTACATC,-0.548
3,GGAGCAA,2.17
4,GCCGATG,0.395
5,GTTGTGC,-0.602
6,GTTTTCA,1.9
7,CCCCTCG,-0.784
8,CCATTCT,-1.15
9,CATTTCC,-0.935
10,GTTCACA,1.75
11,CTGGCAT,1.18
12,AATAAGG,0.561
13,GACACGT,-0.398
14,ATCCCGA,-0.829
15,ATATAGT,-1.49
16,TGGCTCG,-1.03
17,ATCGAAC,-0.635
18,CACGTTT,-0.44
19,TCGGGGT,1.63

# Tested on: T3, Rep nickase domain of porcine circovirus 2
# T3 sequence (residues 2-116, tag not shown): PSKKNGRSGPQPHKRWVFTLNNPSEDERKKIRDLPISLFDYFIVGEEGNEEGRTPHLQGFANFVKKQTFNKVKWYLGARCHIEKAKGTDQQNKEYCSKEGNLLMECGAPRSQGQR
# Assay: as above
# Protocol: as §1
row,Sequence,uncleaved DNA left (log2)
1,GGAATAG,0.26
2,TCATGAG,0.0868
3,ACACACC,-0.00188
4,GTAACAC,0.141
5,TAAGACT,0.152
6,CCGGCCT,-0.127
7,TGCGTAA,-0.2
8,GAAAGGG,0.189
9,TCGTCCA,-0.348
10,ATGTCAC,-0.0238
11,AACTCCG,0.0613
12,GGTGATT,0.0918
13,ACGATCA,0.0648
14,GGTGCGT,-0.0854
15,TAGCCGT,-1.04
16,CTATAAC,-0.0481
17,CCGCTTT,-0.395
18,ATGAGAT,0.208
19,AGACTAA,0.137
20,AAATCAC,-0.00863

row,Sequence,uncleaved DNA left (log2)
1,ATACGAT,0.136
2,TTACATC,-0.0344
3,GGAGCAA,0.25
4,GCCGATG,0.238
5,GTTGTGC,0.0594
6,GTTTTCA,0.181
7,CCCCTCG,-0.191
8,CCATTCT,-1.11
9,CATTTCC,-0.309
10,GTTCACA,0.122
11,CTGGCAT,0.152
12,AATAAGG,0.174
13,GACACGT,0.128
14,ATCCCGA,0.0457
15,ATATAGT,-3.72
16,TGGCTCG,0.00941
17,ATCGAAC,0.0633
18,CACGTTT,-0.836
19,TCGGGGT,0.13
